From the supplement of paper PMC12217912
The list shows a part of the results. The full chains were built here from the parent and the listed change. Inactive controls read about 0.05.

B1: TEV protease; numbered along this chain (parent)
chain: MGESLFKGPRDYNPISSSICHLTNESDGHTTSLYGIGFGPFIITNKHLFRRNNGTLVVQSLHGVFKVKDTTTLQQHLVDGRDMIIIRMPKDFPPFPQKLKFREPQREERICLVTTNFQTKSMSSMVSDTSCTFPSGDGIFWKHWIQTKDGQCGSPLVSTRDGFIVGIHSASNFTNTNNYFTSVPKNFMELLTNQEAQQWVSGWRLNADSVLWGGHKVFMVKPEEPFQPVKEATQL

Variants of: B1
Test: raw area under fraction-flipped curve 0-4 h after induction (AUC4h, not background-subtracted), DNA-recorder readout of cleavage of the substrate (dimensionless); higher = more cleavage of the substrate by the protease variant
Conditions: temperature: 34 °C; time window: 0-4 h after rhamnose induction
Procedure: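 In vivo DNA recorder in E. coli TOP10(DE3) ΔrhaA at 34 °C. Each TEVp single-site mutant (parent TEVp 0) is paired with a single-site variant of the 7-mer TEVs (canonical ENLYFQ|S). The substrate sits between flexible linkers in a Bxb1-sfGFP-TEVs-SsrA fusion, so cleavage stabilises Bxb1 and speeds flipping of a recombination array, read by NGS. The value is the raw area under the fraction-flipped curve over 0-4 h after rhamnose induction (AUC4h), with ≥20 reads per time point. It is not background-subtracted; inactive controls average about 0.047.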
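Further: Bxb1 expression induced with 0.2% (w/v) L-rhamnose at OD600 near 0.5, cultures sampled hourly, flipped fraction per protease–substrate barcode pair counted by paired-end Illumina sequencing.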

Variant | area with substrate ENLYCQS | area with substrate ENLYDQS | area with substrate ENLYEQS | area with substrate ENLYGQS | area with substrate ENLYHQS | area with substrate ENLYIQS | area with substrate ENLYKQS | area with substrate ENLYLQS | area with substrate ENLYMQS | area with substrate ENLYNQS | area with substrate ENLYPQS | area with substrate ENLYQQS | area with substrate ENLYRQS | area with substrate ENLYSQS | area with substrate ENLYTQS | area with substrate ENLYVQS | area with substrate ENLYWQS | area with substrate ENLYYQS | area with substrate ENLYAQS
S16Q | 0.0985 | 0.0606 | 0.0847 | 0.0696 | 0.066 | 0.139 | 0.0567 | 0.0878 | 0.0934 | 0.0726 | 0.077 | 0.0515 | 0.0619 | 0.0691 | 0.0954 | 0.0935 | 0.0962 | 0.055 | 
S16R | 0.0748 | 0.0614 | 0.075 | 0.0565 | 0.0675 | 0.127 | 0.0529 |  | 0.0908 | 0.0767 | 0.102 | 0.0596 | 0.0528 | 0.0775 | 0.0813 | 0.132 | 0.0854 | 0.0675 | 
S16A | 0.0751 | 0.0433 | 0.0668 |  | 0.0634 | 0.106 | 0.0685 | 0.101 | 0.0955 | 0.0707 | 0.0727 |  | 0.0758 | 0.088 | 0.0944 | 0.126 | 0.0843 |  | 
S16V | 0.0928 |  |  | 0.0755 | 0.0673 | 0.151 | 0.0268 | 0.0691 |  | 0.0755 | 0.091 | 0.0674 | 0.0692 |  | 0.082 | 0.115 | 0.147 |  | 
S16H | 0.0875 |  | 0.0655 | 0.0565 | 0.0608 | 0.117 | 0.0595 |  | 0.107 | 0.0533 | 0.0595 |  | 0.0588 |  | 0.0763 | 0.114 | 0.0254 | 0.0755 | 
G8P | 0.0898 | 0.059 | 0.0706 | 0.0683 |  |  | 0.0517 | 0.112 |  | 0.0993 | 0.0609 | 0.0934 | 0.0343 | 0.0674 |  |  |  |  | 
L48I | 0.0823 |  | 0.0717 | 0.0629 | 0.066 | 0.088 | 0.0515 |  | 0.0665 | 0.0444 | 0.064 | 0.0501 |  |  |  | 0.103 |  | 0.0541 | 
L48K | 0.0556 | 0.0605 | 0.0582 |  | 0.0545 | 0.0619 | 0.0485 | 0.0557 | 0.0703 | 0.0551 | 0.0447 | 0.064 | 0.0448 |  | 0.0523 |  | 0.0651 | 0.0629 | 
L48F | 0.0773 | 0.0496 | 0.069 | 0.0699 | 0.0668 |  | 0.0474 |  | 0.081 | 0.0716 | 0.07 |  | 0.0642 |  |  |  | 0.0907 | 0.0459 | 
S18C | 0.085 | 0.0637 | 0.0545 | 0.0625 | 0.0605 | 0.126 | 0.0557 | 0.107 | 0.088 | 0.0618 | 0.0781 | 0.0574 | 0.0626 | 0.0776 | 0.0529 | 0.122 | 0.0694 | 0.0777 | 
D208V |  | 0.0459 | 0.0654 | 0.0594 | 0.0617 | 0.0737 | 0.0751 |  |  | 0.0671 | 0.0546 | 0.0492 | 0.0685 | 0.0164 |  | 0.0792 | 0.0618 |  | 0.067
D208N |  | 0.0664 | 0.0787 | 0.0564 |  | 0.106 | 0.0595 |  | 0.074 |  | 0.0742 |  |  | 0.0701 |  |  |  | 0.0522 | 0.0796
T31E | 0.0981 | 0.0685 | 0.0647 | 0.0661 | 0.0824 | 0.113 | 0.0455 | 0.0709 | 0.0834 | 0.0552 | 0.0729 | 0.0621 | 0.0614 | 0.0735 | 0.0574 | 0.12 | 0.0659 | 0.0631 | 
F226C | 0.109 |  | 0.0592 | 0.057 | 0.0608 | 0.129 | 0.0641 |  |  | 0.0493 | 0.0844 |  |  |  |  | 0.113 | 0.0797 | 0.0548 | 0.0625
R204K | 0.0839 | 0.0575 | 0.0513 |  | 0.0628 |  | 0.0644 |  | 0.0888 | 0.0706 |  | 0.0611 | 0.061 | 0.0818 | 0.0841 |  |  |  | 0.0932
R204H |  | 0.0563 | 0.072 |  | 0.0697 | 0.0815 | 0.056 |  | 0.0772 | 0.0612 | 0.0662 | 0.054 |  | 0.075 | 0.0866 | 0.117 | 0.0982 | 0.0741 | 0.0632
K216H |  |  | 0.0578 | 0.0662 | 0.0657 | 0.0835 | 0.0596 |  | 0.075 | 0.0619 | 0.0729 | 0.068 | 0.0534 | 0.145 |  | 0.108 |  | 0.0718 | 0.0622
N13T | 0.0991 | 0.0515 | 0.0732 | 0.0632 | 0.0699 | 0.103 | 0.0201 | 0.0838 | 0.0774 | 0.0694 | 0.0692 | 0.0574 | 0.0672 | 0.0775 | 0.0949 | 0.136 | 0.0704 | 0.0551 | 
N13W | 0.0594 | 0.0569 | 0.063 | 0.0717 | 0.0723 | 0.0987 | 0.0615 |  | 0.0728 | 0.0656 | 0.0688 | 0.063 | 0.0686 |  |  | 0.114 | 0.069 | 0.0208 | 
Q198K |  | 0.0504 | 0.075 |  | 0.07 | 0.0536 | 0.0704 | 0.0936 | 0.0822 | 0.0517 | 0.085 |  | 0.0678 | 0.0809 |  | 0.135 | 0.0817 | 0.0969 | 0.0844
S32Q | 0.0751 | 0.0737 | 0.0512 |  | 0.08 | 0.105 | 0.0817 |  | 0.0687 | 0.0724 | 0.09 | 0.0591 | 0.065 | 0.0957 | 0.077 | 0.0057 | 0.0697 | 0.0394 | 
S32M | 0.112 | 0.0734 | 0.0689 | 0.0621 | 0.0698 |  | 0.0277 |  | 0.0912 |  | 0.0702 | 0.0818 | 0.0516 | 0.0774 |  |  | 0.0765 | 0.0638 | 
V200H | 0.0841 | 0.0566 | 0.0548 | 0.0453 | 0.0665 | 0.132 | 0.0612 | 0.0742 | 0.0711 | 0.0645 | 0.065 | 0.062 | 0.0341 | 0.0643 | 0.0652 | 0.0881 | 0.0652 | 0.0593 | 0.0647
P222H |  | 0.0557 | 0.0602 | 0.0611 | 0.076 |  | 0.0563 | 0.0666 | 0.0823 | 0.0556 | 0.0623 | 0.0564 |  |  |  | 0.124 | 0.0742 | 0.0445 | 0.0743
